PubChem BioAssay (NCI)
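Step 1: Grow cells in 96-well plates. Step 2: Expose to compound for 48 hours at 5 concentrations. Step 3: Interpolate endpoints linearly; if unreached, use highest concentration. At the GI50, growth is halved.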 For part of its entries the source gives two or more results. The other results are left out here. There may be further records. For some of these results: Records of one sample usually come from different ranges of test concentrations, not given here; some values may only mark the edge of a range.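 TGI denotes the concentration required for complete inhibition of growth.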 For some of these results: The records of an entry are repeats in other runs, samples, wells, individuals or studies. Records carry a tag for their origin. Letters count within one entry.

What was measured:
Assay in all cases: DTP human tumour cell line panel, 48 h
A549 NSCLC = system: A549 NSCLC
786-0 renal = system: 786-0 renal
OVCAR-8 ovarian = system: OVCAR-8 ovarian
SK-MEL-5 melanoma = system: SK-MEL-5 melanoma
HOP-62 NSCLC = system: HOP-62 NSCLC
EKVX NSCLC = system: EKVX NSCLC
OVCAR-5 ovarian = system: OVCAR-5 ovarian
SF-539 CNS = system: SF-539 CNS
ACHN renal = system: ACHN renal
OVCAR-3 ovarian = system: OVCAR-3 ovarian
A498 renal = system: A498 renal
SF-268 CNS = system: SF-268 CNS
DU-145 prostate = system: DU-145 prostate
MALME-3M melanoma = system: MALME-3M melanoma
SK-MEL-2 melanoma = system: SK-MEL-2 melanoma
HL-60(TB) leukemia = system: HL-60(TB) leukemia

In the case of `COC(=O)[C@@H](C)C[C@H](Cc1ccccc1)NC(=O)c1csc([C@@H](C[C@H](C(C)C)N(C)C(=O)C2(NC(=O)[C@H]3CCCCN3C)CC2)OC(C)=O)n1`, the GI50 (A549 NSCLC) is reported as 72.2 nM and 3.33 nM, the GI50 (786-0 renal) is reported as 69.8 nM and 3.33 nM and the GI50 (OVCAR-8 ovarian) is reported as 36.1 nM and 3.33 nM. The TGI (SK-MEL-5 melanoma) was 789 nM and 13.6 nM, the GI50 (HOP-62 NSCLC) was 34 nM and 3.33 nM and the GI50 (EKVX NSCLC) was 144 nM and 5.23 µM. The GI50 (OVCAR-5 ovarian) was 52 nM and 3.33 nM, the TGI (SF-539 CNS) was 45 nM and < 3.33 nM and the GI50 (ACHN renal) was 44.5 nM and 3.33 nM. For the same molecule, the TGI (OVCAR-3 ovarian) was 8.1 nM and > 33.3 µM, the TGI (A498 renal) was 64.3 nM and < 3.33 nM and the GI50 (SF-268 CNS) was 43.9 nM and 3.33 nM. The TGI (DU-145 prostate) was 222 nM and > 33.3 µM.
`Cc1ccc(S(=O)(=O)Nc2nc3ccccc3nc2Nc2ccc3nsnc3c2)cc1` was tested, and the TGI (MALME-3M melanoma) was > 100 µM [sample A, 1 test] and 5.02 µM [sample B, 1 test] and the TGI (SK-MEL-2 melanoma) was 8.98 µM [sample A, 1 test] and > 100 µM [sample B, 1 test].
In the case of `CCCCCN(CCCCC)CC(O)c1cc2c(c3ccccc13)CCCC2` (stereo unspecified), the TGI (HL-60(TB) leukemia) is reported as 8.51 µM [sample A, 1 test] and > 100 µM [sample B, 1 test].
